According to the antibiotic and cytotoxicity screens of Wong et al. (2023):
Some of the results follow.

tested on: HepG2; assay: cytotoxicity call (relative viability < 0.9); conditions: 10 µM

Row | SMILES | cytotoxicity call
1 | CC(C)(CO)C(O)C(=O)NCCC(=O)[O-].[Na+] (stereo not drawn) [PANTOTHENIC ACID(d) Na salt ] | inactive
2 | CC1=CCCC(C)=CCC(C)(C)C=CC1 [HUMULENE (alpha) ] | inactive
3 | COc1ccc(NC(=O)Nc2ccc3c(c2)C(=O)N([C@H](C)CO)C[C@@H](C)[C@@H](CN(C)CC2CCCCC2)O3)cc1 | inactive
4 | CC(C)(N)c1ccc(F)cc1 | inactive
5 | C[C@H]1CN([C@@H](C)CO)S(=O)(=O)c2ccc(-c3ccc(C(=O)N(C)C)cc3)cc2O[C@@H]1CN(C)C(=O)Cc1ccccn1 | inactive
6 | COC1C(O)CC(=O)OC(C)CC=CC=CC(O)C(C)CC(CC=O)C1OC1OC(C)C(OC2CC(C)(O)C(OC(=O)CC(C)C)C(C)O2)C(N(C)C)C1O (stereo not drawn) [KITASAMYCINS [A1 shown] ] | inactive
7 | CO[C@@H]1CN(C)C(=O)c2cc(NC(=O)Nc3ccccc3)ccc2OC[C@H](C)N(C(=O)CN(C)C)C[C@@H]1C | inactive
8 | C[C@@H]1CN([C@@H](C)CO)C(=O)Cc2cc(NS(=O)(=O)c3cn(C)cn3)ccc2O[C@@H]1CN(C)S(=O)(=O)c1cccs1 | inactive
9 | Cc1noc(C)c1S(=O)(=O)N(C)C[C@H]1Oc2ccc(NC(=O)NC(C)C)cc2CC(=O)N([C@@H](C)CO)C[C@H]1C | inactive
10 | CC(=O)OC1CCC2(C)C(CCC3(C)C2CC=C2C4CC(C)(C)CCC4(C)CCC23C)C1(C)C (stereo not drawn) [beta-AMYRIN ACETATE ] | inactive
11 | CC(C=CC=C(C)C=CC1=C(C)C(=O)CCC1(C)C)=CC=CC=C(C)C=CC=C(C)C=CC1=C(C)C(=O)CCC1(C)C [CANTHAXANTHIN (euglenanone) ] | inactive
12 | COc1ccc(NC(=O)Nc2ccc3c(c2)C(=O)N([C@H](C)CO)C[C@H](C)[C@H](CN(C)C(=O)Nc2cccc4ccccc24)OCCCC[C@H](C)O3)cc1 | inactive
13 | N=C(CN1CCCCC1)NO | inactive
14 | C[C@@H]1CCCCO[C@H](CN(C)S(=O)(=O)c2ccccc2)[C@H](C)CN([C@@H](C)CO)C(=O)c2cc(NC(=O)Nc3ccc4c(c3)OCO4)ccc2O1 | inactive
15 | CC(C)CCC[C@@H](C)[C@H]1CC[C@H]2[C@@H]3C[C@@H](O)[C@@]4(O)C[C@@H](O)CC[C@]4(C)[C@H]3CC[C@]12C [CHOLESTAN-3beta,5alpha,6beta-TRIOL ] | active
16 | CCCCCC=CCCC(=O)NC1C(Oc2c3cc4cc2Oc2ccc(cc2Cl)C(OC2OC(CO)C(O)C(O)C2NC(C)=O)C2NC(=O)C(NC(=O)C4NC(=O)C4NC(=O)C(Cc5ccc(c(Cl)c5)O3)NC(=O)C(N)c3ccc(O)c(c3)Oc3cc(O)cc4c3)c3ccc(O)c(c3)-c3c(OC4OC(CO)C(O)C(O)C4O)cc(O)cc3C(C(=O)O)NC2=O)OC(CO)C(O)C1O (stereo not drawn) [TEICOPLANIN [A(2-1) shown] ] | inactive
17 | CS(=O)(=O)Nc1ccc2c(c1)[C@H]1C[C@@H](CC(=O)NCc3ccc(-c4ccccc4)cc3)O[C@@H](CO)[C@H]1O2 | inactive
18 | O=C(/C=C/c1ccccc1)c1ccc(O[C@@H]2O[C@H](CO)[C@@H](O)[C@H](O)[C@H]2O)cc1O | inactive
19 | CC(C)CCCC(C)C1CCC2C3CCC4CC(O)CCC4(C)C3CCC12C (stereo not drawn) [5alpha-CHOLESTANOL ] | inactive
20 | C[C@@H]1CN([C@@H](C)CO)C(=O)c2cccc(NC(=O)CCCCCC(=O)Nc3ccccc3N)c2O[C@H]1CN(C)Cc1ccc(Oc2ccccc2)cc1 | inactive
21 | CC(=O)C12OC1(C)CC1C3CC=C4CC(O)CCC4(C)C3CCC12C (stereo not drawn) [16beta-METHYL-16(17)-EPOXY-5-PREGNENOLONE ] | inactive
22 | Cc1noc(C)c1S(=O)(=O)Nc1ccc2c(c1)CC(=O)N([C@H](C)CO)C[C@H](C)[C@@H](CN(C)Cc1ccncc1)O2 | inactive
23 | CC(C)CCCC(C)C1CCC2C3CC(=O)C4CC(O)CCC4(C)C3CCC12C (stereo not drawn) [5alpha-CHOLESTAN-3beta-OL-6-ONE ] | inactive
24 | CC(C=CC1(O)C(C)=CC(=O)CC1(C)C)=CC(=O)O (mixture of isomers) [ABSCISIC ACID (cis,trans; +/-) ] | inactive
25 | C[C@@H]1CN([C@@H](C)CO)C(=O)Cc2cc(NC(=O)Cc3ccccc3)ccc2O[C@H]1CN(C)Cc1ccc(-c2ccccc2)cc1 | inactive
26 | C[C@H](CO)N1C[C@H](C)[C@@H](CN(C)C(=O)Nc2ccc3c(c2)OCO3)Oc2ccc(NC(=O)Nc3ccc(C(F)(F)F)cc3)cc2C1=O | inactive
27 | C[C@H](CO)N1C[C@H](C)[C@H](CN(C)C(=O)Nc2ccc3c(c2)OCO3)Oc2ncc(C#CCN(C)C)cc2C1=O | inactive
28 | COC1C(C(=O)O)OC(C)C(O)C1O.COC1OC(C(=O)O)C(O)C(O)C1O (stereo not drawn) [ALGINIC ACID [Mol Wt ~200,000; monomers shown] ] | active
